# Measurements taken from PubChem BioAssay AID686979 (National Center for Advancing Translational Sciences (NCATS), 2013).
# The whole screen tested about 420,000 compounds, of which about 50,000 (12%) were called active. This list was built around the results that the source calls inconclusive (neither active nor inactive); the mix of calls is not that of the screen. Calls come from the whole dose curve; as a rule, active = well fitted inhibition curve with a large enough effect; inconclusive = small, poorly fitted or top-dose-only effect; inactive = flat fitted curve, though single readings scatter. Potencies of inconclusive entries are left out as doubtful fits.
# Experiment: qHTS for Inhibitors of human tyrosyl-DNA phosphodiesterase 1 (TDP1): qHTS in cells in presence of CPT; note: nearly all actives have a fitted effect of over 55% in size
# Conditions: chicken DT40 Tdp1-/-;hTDP1 cells + 20 nM CPT, ATP luminescence, 48 h; activity change, negative = growth inhibition: at 46.2 µM (top of the series) unless noted
# Outline: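 Cell growth measured by CellTiter-Glo luminescence after a minimum 48 h, 37 C compound exposure with 20 nM CPT in Tdp1-knockout DT40 cells stably expressing hTDP1, seeded 400/well; qHTS titration format.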
# % is set by controls: 0 for no effect and ±100 for the full control effect; potency is the fitted concentration of half-maximal effect; tags give direction and shape of the fitted curve.
Structure (SMILES),Potency,"activity change, negative = growth inhibition"
Cc1ccc(C(C)C)c(OCC(=O)Nc2ccccc2N2CCN(C)CC2)c1,"inconclusive [inhibitor, single point]",–
Cn1c(=O)n(C)c2cc(NC(=O)CCl)ccc21,active: 10.3 µM,–
Cc1ccc(C)c(S(=O)(=O)N2CCN(C(=O)CCC(=O)NCc3ccc(Cl)cc3Cl)CC2)c1,"inconclusive [inhibitor, single point]",–
CCCCNC(=O)c1nc(-c2cnc(C)cn2)oc1-c1ccc(Cl)cc1,"inconclusive [inhibitor, single point]",–
Cc1ccc(S(=O)(=O)N2CCCCC2C(=O)NCc2ccco2)cc1 (centres undefined),"inconclusive [inhibitor, partial curve, poor fit]",–
CCCN1CCC(=O)N([C@H](CN=[N+]=[N-])Cc2ccccc2)CC1,inactive,–
Cc1ncsc1CCC(=O)N1CCCC(Nc2ccc(F)c(F)c2)C1 (centres undefined),active: 13 µM,–
O=C(NNC(=O)C12CC3CC(CC(O)(C3)C1)C2)c1ccccc1O,"inconclusive [inhibitor, single point]",–
COc1ccc(N2CC(NC(=O)NC(C)(C)C)CC2=O)cc1 (centres undefined),inactive,–
CCN(C(=O)CN1C(=O)COc2ccc(S(=O)(=O)N3CCCCCC3)cc21)c1cccc(C)c1,"inconclusive [inhibitor, single point]",–
COc1cccc(CNS(=O)(=O)c2ccc3c(c2)N(C(C)=O)CCS3)c1,"inconclusive [inhibitor, single point]",–
COc1ccc(OC)c(NC(=O)CSc2nnc3ccc(-c4ccccn4)nn23)c1,"inconclusive [inhibitor, partial curve]",–
COC(=O)c1ccc(Nc2cc(C)nc(-c3ccccc3O)n2)cc1,"inconclusive [inhibitor, partial curve]",–
CC(C)(C)n1ncc2c(=O)n(CC(=O)N3CCCc4ccccc43)cnc21,"inconclusive [inhibitor, single point]",–
COc1cc(C(O)c2nc3ccccc3n2C(C)C)cc(OC)c1OC (centres undefined),"inconclusive [inhibitor, single point]",–
CCN1C(C(=O)c2ccccc2)=C(OC(=O)c2ccc(OC)cc2)c2ccccc2S1(=O)=O,active: 4.61 µM,–
COc1ccc(C2=Nn3c(nnc3-c3ccncc3)SC2)cc1,"inconclusive [inhibitor, partial curve]",–
O=C1N(C2CCCC2)C[C@@H]2C[C@@H](c3cn[nH]c3-c3ccc(Cl)cc3)N3CCC[C@@]123,"inconclusive [inhibitor, single point]",–
COc1ccc(CCn2c(=N)c(C(=O)NCC3CCCO3)cc3c(=O)n4ccccc4nc32)cc1 (centres undefined),active: 5.8 µM,–
C(=C\c1ccccc1)/CN1CCN(c2ncnc3c2oc2ccccc23)CC1,active: 18.4 µM,–
CCN1C[C@@H]2[C@@H]3C(=O)N(C)C(=O)[C@@H]3[C@](Cc3ccccc3)(C1=O)N2C(=O)c1ccc(Cl)c(Cl)c1,"inconclusive [inhibitor, single point]",–
COc1ccc(C2=CC(=O)C[C@H](c3ccc(F)cc3)C2)c(F)c1F,"inconclusive [inhibitor, single point]",–

Structure (SMILES),Potency,"activity change, negative = growth inhibition"
CCNC(=S)N(CCc1ccc(S(N)(=O)=O)cc1)C1CC(=O)N(c2ccccc2)C1=O (centres undefined),"inconclusive [inhibitor, partial curve]",–
CC(C)N(C(=O)[C@H]1C[C@H](CC(=O)NCc2ccco2)C(=O)N2CCc3c([nH]c4ccc(Cl)cc34)[C@]12C)C(C)C,"inconclusive [inhibitor, single point]",–
COc1cccc(CNc2nc3cc(-c4ccccc4)sc3c(=O)n2C)c1,"inconclusive [inhibitor, single point]",–
CCN1CCN(c2ncnc3c2c(-c2ccccc2)cn3-c2ccc(F)cc2)CC1,"inconclusive [inhibitor, single point]",–
Cc1ccc(Cn2c(=N)n(CC(=O)c3ccccc3)c3ccccc32)cc1,active: 7.31 µM,–
Cc1cc(C)c2nc(C)cc(Nc3ccc(C(=O)NCCO)cc3)c2c1,inactive,–
CCNc1nc(Oc2ccc(C(=O)OC)cc2)nc(N(C)C)n1,"inconclusive [inhibitor, single point]",–
CCN(Cc1ccccc1)C(=O)CCc1c(C)nc2c(c(C)nn2-c2ccc(C)c(C)c2)c1C,inactive,–
O=C(COc1ccc(-c2ccccc2)cc1)Nc1cccnc1,active: 18.4 µM,–
Cc1nnc(NC(=O)CSc2nc(CC(C)C)nc3c2c(=O)n(C)c(=O)n3C)s1,active: 16.4 µM,–
CCc1ccc([C@@H]2CC=C(C(=O)O)[C@H](c3ccc(C(C)(C)C)cc3)N2S(=O)(=O)c2ccc(C)cc2)cc1,"inconclusive [inhibitor, single point]",–
CCOC(=O)c1ccc(S(=O)(=O)N2CCN(C(=O)CSc3nc4ccccc4o3)CC2)cc1,active: 11.6 µM,–
CCOc1ccc(C(=O)N2CCCCCC2)cc1,inactive,–
O=C1C2C3CC4C5C3C1C5C1(SCCS1)C42 (centres undefined),inactive,–
Cn1c(CNC(=O)c2ccco2)nnc1SCC(=O)Nc1ccccc1Cl,inactive,–
COc1ccc(C(=O)COC(=O)[C@H](C)Nc2ccc(C(F)(F)F)cc2[N+](=O)[O-])c(OC)c1,inactive,–
CC(C)NC(=O)N1c2ccccc2Sc2ccccc21,–,inconclusive: -30.2% [inhibitor]
Cn1c(=O)c2c(-c3ccc(Br)cc3)n(CCc3ccccc3)cc2n(C)c1=O,active: 14.6 µM,–
CN(C)c1ccc(N2C(=O)CC(Sc3ccccc3C(=O)O)C2=O)cc1 (centres undefined),active: 13 µM,–
COc1cc(CC(=O)N(c2ccccc2)c2nc(C)cs2)cc(OC)c1OC,"inconclusive [inhibitor, single point]",–
Cc1cccc(NC(=S)NNc2ncc(C(F)(F)F)cc2Cl)c1,"inconclusive [inhibitor, single point]",–
NS(=O)(=O)c1ccc(CCNC(=O)NC2(C(F)(F)F)Oc3ccccc3O2)cc1,"inconclusive [inhibitor, single point]",–
